Experimental data as given in the supplement of paper PMC4967469.

Columns and labels:
Assay in all cases: Viability of human cancer cell lines after 72 h of drug (GDSC screen)
ZM-447439 = compound: COc1cc2c(Nc3ccc(NC(=O)c4ccccc4)cc3)ncnc2cc1OCCCN1CCOCC1 [ZM-447439]; details: top dose inferred
Experimental: (§1)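 Human cancer cell lines in 384-well plates, medium with 10% serum, drug for 72 h over a 256-fold dose range (nine 2-fold or five 4-fold steps up to the top dose). Adherent lines were fixed and stained with the nucleic acid dye Syto60, suspension lines read with resazurin; signal relative to control wells, capped at 0 and 100%. One two-parameter sigmoid per drug and line, fitted in a mixed model over all curves with the slope shared within a line.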

PD-0332991 = compound: CC(=O)c1c(C)c2cnc(Nc3ccc(N4CCNCC4)cn3)nc2n(C2CCCC2)c1=O [PD-0332991]
Experimental: as §1

AZD6244 = compound: Cn1cnc2c(F)c(Nc3ccc(Br)cc3Cl)c(C(=O)NOCCO)cc21 [AZD6244]; details: screen: GDSC drug entry 1062
Experimental: as §1

Cell Line | AUC (ZM-447439) | IC50 (ZM-447439) | AUC (PD-0332991) | IC50 (PD-0332991) | AUC (AZD6244) | IC50 (AZD6244)
G-292 Clone A141B1 (osteosarcoma, adherent, top dose 4 µM) | 0.951 | > 4 µM | 0.867 | > 4 µM | 0.967 | > 4 µM
G-361 (melanoma, adherent, top dose 4 µM) | 0.986 | > 4 µM | 0.93 | > 4 µM | 0.988 | > 4 µM
G-401 (kidney, adherent, top dose 4 µM) | 0.934 | > 4 µM | 0.748 | 1.39 µM | 0.917 | > 4 µM
GA-10 (Burkitt lymphoma, suspension, top dose 4 µM) | 0.924 | > 4 µM | 0.801 | 1.61 µM | 0.99 | > 4 µM
GAK (melanoma, adherent, top dose 4 µM) | 0.99 | > 4 µM | 0.969 | > 4 µM | 0.814 | 2.05 µM
GAMG (glioma, adherent, top dose 4 µM) | 0.825 | 2.56 µM | 0.773 | 1.63 µM | 0.904 | > 4 µM
GB-1 (glioma, adherent, top dose 4 µM) | 0.909 | > 4 µM | 0.794 | 2.23 µM | 0.907 | > 4 µM
GCIY (stomach, adherent, top dose 4 µM) | 0.98 | > 4 µM | 0.984 | > 4 µM | 0.821 | 2.71 µM
GDM-1 (acute myeloid leukaemia, suspension, top dose 4 µM) | 0.985 | > 4 µM | 0.987 | > 4 µM | 0.987 | > 4 µM
GI-1 (glioma, adherent, top dose 4 µM) | 0.846 | 2.74 µM | 0.984 | > 4 µM | 0.945 | > 4 µM
GI-ME-N (neuroblastoma, adherent, top dose 4 µM) | 0.921 | > 4 µM | 0.818 | 3.4 µM | 0.943 | > 4 µM
GMS-10 (glioma, adherent, top dose 4 µM) | 0.876 | 3.92 µM | 0.859 | 3.28 µM | 0.907 | > 4 µM
GOTO (neuroblastoma, adherent, top dose 4 µM) | 0.866 | > 4 µM | 0.862 | > 4 µM | 0.96 | > 4 µM
GR-ST (lymphoblastic leukaemia, suspension, top dose 4 µM) | 0.949 | > 4 µM | 0.857 | > 4 µM | 0.898 | > 4 µM
GRANTA-519 (B-cell lymphoma, suspension, top dose 4 µM) | 0.951 | > 4 µM | 0.986 | > 4 µM | 0.991 | > 4 µM
GT3TKB (stomach, adherent, top dose 2 µM) | 0.928 | > 2 µM | 0.865 | 1.42 µM | 0.932 | > 2 µM

Cell Line | AUC (ZM-447439) | IC50 (ZM-447439) | AUC (PD-0332991) | IC50 (PD-0332991) | AUC (AZD6244) | IC50 (AZD6244)
H4 (glioma, adherent, top dose 4 µM) | 0.772 | 1.53 µM | 0.759 | 1.39 µM | 0.926 | > 4 µM
H9 (lymphoid neoplasm, suspension, top dose 4 µM) | 0.945 | > 4 µM | 0.992 | > 4 µM | 0.992 | > 4 µM
H290 (mesothelioma, adherent, top dose 4 µM) | 0.909 | > 4 µM | 0.602 | 0.465 µM | 0.989 | > 4 µM
H2369 (mesothelioma, adherent, top dose 4 µM) | 0.936 | > 4 µM | 0.667 | 0.743 µM | 0.964 | > 4 µM
H2373 (mesothelioma, adherent, top dose 4 µM) | 0.97 | > 4 µM | 0.832 | 3.5 µM | 0.891 | > 4 µM
H2461 (mesothelioma, adherent, top dose 4 µM) | 0.982 | > 4 µM | 0.849 | > 4 µM | 0.98 | > 4 µM
H2591 (mesothelioma, adherent, top dose 2 µM) | 0.9 | > 2 µM | 0.611 | 0.278 µM | 0.763 | 0.931 µM
H2595 (mesothelioma, adherent, top dose 4 µM) | 0.901 | > 4 µM | 0.904 | > 4 µM | 0.891 | > 4 µM
H2731 (mesothelioma, adherent, top dose 4 µM) | 0.968 | > 4 µM | 0.851 | 3.77 µM | 0.974 | > 4 µM
H2795 (mesothelioma, adherent, top dose 4 µM) | 0.948 | > 4 µM | 0.844 | 2.79 µM | 0.829 | 2.43 µM
H2869 (mesothelioma, adherent, top dose 4 µM) | 0.983 | > 4 µM | 0.946 | > 4 µM | 0.981 | > 4 µM
H3255 (lung adenocarcinoma, adherent, top dose 4 µM) | 0.908 | > 4 µM | 0.904 | > 4 µM | 0.933 | > 4 µM
H-EMC-SS (chondrosarcoma, adherent, top dose 4 µM) | 0.967 | > 4 µM | 0.764 | 1.87 µM | 0.54 | 0.333 µM
HAL-01 (lymphoblastic leukaemia, suspension, top dose 4 µM) | 0.94 | > 4 µM | 0.7 | 0.842 µM | 0.969 | > 4 µM
HARA (lung squamous cell carcinoma, adherent, top dose 4 µM) | 0.876 | > 4 µM | 0.696 | 0.98 µM | 0.973 | > 4 µM
HC-1 (hairy cell leukaemia, suspension, top dose 4 µM) | 0.959 | > 4 µM | 0.909 | > 4 µM | 0.974 | > 4 µM

A lower IC50 marks a more sensitive line; a fit beyond the top or the lowest dose is shown as a bound at that dose. AUC sums up the same curve from the lowest dose to the 256-fold higher top dose; it is 1 without any effect and falls as sensitivity rises. For part of these data: Where the top dose is marked as inferred, it comes from the curve model; the source does not state it. For part of these data: Where an entry number is given, a second screen of the drug exists; the two often differ.
